Measured values reported in PubChem BioAssay AID504339 (National Center for Advancing Translational Sciences (NCATS), 2011).
Values joined by “and” are separate entries in the source; they are usually repeats but may differ in a detail not shown here. Identical values can stand only once. Among all 390,000 compounds or so, about 17,000 (4.4%) were called active. The shares of active, inactive and inconclusive entries below differ from those in the screen. The call rests on the fitted dose curve; in most records, active means well fitted inhibition curve with a large enough effect; inconclusive means small, poorly fitted or top-dose-only effect; inactive means no such curve, though single readings can be large or run the other way. Where the call is inconclusive, the potency comes from a doubtful curve fit.

What follows are molecules tested against Lysine-specific demethylase 4A (Homo sapiens) (UniProt O75164) (assay: qHTS Assay for Inhibitors of JMJD2A-Tudor Domain). Conditions: AlphaScreen JMJD2A-Tudor / H3K4me3 peptide binding; activity change, negative = inhibition: at 114 µM (top of the series).
Further: nearly all actives have a fitted effect of over 50% in size.
On the % scale 0 is the no-effect control and ±100 the full control effect; potency means the concentration at half of the fitted maximal effect; tags describe the fitted curve by direction and shape.

Chain of UniProt O75164 (O75164 whole entry, looked up, the tested form may be a part): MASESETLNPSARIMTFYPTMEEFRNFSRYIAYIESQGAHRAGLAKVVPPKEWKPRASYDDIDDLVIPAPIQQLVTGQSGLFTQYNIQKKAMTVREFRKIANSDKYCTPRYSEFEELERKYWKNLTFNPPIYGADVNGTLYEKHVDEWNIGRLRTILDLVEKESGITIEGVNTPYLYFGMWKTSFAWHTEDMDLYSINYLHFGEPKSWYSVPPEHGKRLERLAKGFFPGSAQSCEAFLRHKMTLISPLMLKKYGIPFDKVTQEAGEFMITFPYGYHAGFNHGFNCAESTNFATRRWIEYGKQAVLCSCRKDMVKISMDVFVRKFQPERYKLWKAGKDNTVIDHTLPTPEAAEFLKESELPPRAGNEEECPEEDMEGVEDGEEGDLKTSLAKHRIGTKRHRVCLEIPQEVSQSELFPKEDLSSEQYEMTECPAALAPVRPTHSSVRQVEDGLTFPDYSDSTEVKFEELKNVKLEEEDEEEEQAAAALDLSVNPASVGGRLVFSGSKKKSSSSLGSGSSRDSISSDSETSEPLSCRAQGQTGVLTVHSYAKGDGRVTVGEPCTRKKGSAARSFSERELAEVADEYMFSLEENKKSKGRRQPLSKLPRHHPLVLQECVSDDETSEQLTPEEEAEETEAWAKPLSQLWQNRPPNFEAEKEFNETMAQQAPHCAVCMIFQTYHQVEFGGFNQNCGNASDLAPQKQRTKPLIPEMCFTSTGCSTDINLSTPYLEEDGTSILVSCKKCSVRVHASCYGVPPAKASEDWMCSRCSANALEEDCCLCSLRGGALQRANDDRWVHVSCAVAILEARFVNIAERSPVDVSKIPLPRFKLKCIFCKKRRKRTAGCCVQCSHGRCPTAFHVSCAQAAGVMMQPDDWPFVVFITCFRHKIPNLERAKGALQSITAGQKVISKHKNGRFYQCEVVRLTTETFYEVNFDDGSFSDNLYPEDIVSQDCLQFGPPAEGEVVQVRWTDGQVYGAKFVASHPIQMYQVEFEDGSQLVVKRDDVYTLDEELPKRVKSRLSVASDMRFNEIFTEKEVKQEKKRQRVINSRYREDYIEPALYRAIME

Potency, active:
Cc1cc(C)n(CCCNCC(O)c2ccccc2)n1 (centres undefined) 1.12 µM and 79.4 µM
CNCCOc1ccccc1C(C)(C)C 3.16 µM
O=C(Nc1ccc(N2CCCC2)c(Cl)c1)c1cccs1 44.7 µM
CN(CCOCCOc1ccc(F)cc1)Cc1ccccc1 12.6 µM
COc1ccc(NCC(=O)N/N=C/C=C/c2ccccc2[N+](=O)[O-])cc1 79.4 µM
c1ccc(-c2c(-c3ccccc3)n(Cc3ccco3)c3ncnc(NCCCn4ccnc4)c23)cc1 44.7 µM
C=CCc1ccc(OCCCN2CCCC(C)C2)c(OC)c1 (centres undefined) 3.55 µM

Potency, inconclusive:
CC(C)(C)c1ccc(NC(=O)COc2ccc(-n3ccnc3)cc2)cc1 79.4 µM [inhibitor, partial curve]
O=C(O)c1cc(=O)c2ccccc2[nH]1 89.1 µM [inhibitor, single point]
Cc1ccc(N2CC(O)=C(c3nc4ccccc4c(=O)[nH]3)C2=N)cc1C 3.55 µM [inhibitor, single point]
Cc1ccccc1NC(=O)CN1C(=O)CSc2ccc(S(=O)(=O)N3CCCCC3)cc21 15.8 µM [inhibitor, full curve]
O=C1NC2(CCCCCC2)C(=O)N1Cc1cccc([N+](=O)[O-])c1 35.5 µM [inhibitor, partial curve]
O=C(O)CN1C(=O)/C(=C\c2cccc(OCc3ccc(F)cc3)c2)SC1=S 56.2 µM [inhibitor, partial curve]
COc1ccc2c(c1OC)C(=O)N1N=C(c3ccc(F)cc3)CC21 (centres undefined) 17.8 µM [inhibitor, full curve]
Cc1ccc(SC[C@H](c2ccccc2)N2CCN(CCc3ccccc3)CCC2=O)cc1 22.4 µM [inhibitor, single point]
CC(=NNc1nc2ccccc2s1)c1ccncn1 56.2 µM [inhibitor, partial curve]
Cc1ncc(CO)c(/C=N/NC(=O)c2ccc(O)cc2)c1O 70.8 µM [inhibitor, single point]
COc1ccccc1C1/C(=C(/O)c2ccccc2)C(=O)C(=O)N1CCO (centres undefined) 50.1 µM [inhibitor, partial curve]
c1ccc(CCc2cn(C[C@H]3CC[C@@H]([C@@H]4CC[C@H](Cn5cc(CCc6ccccc6)nn5)O4)O3)nn2)cc1 20 µM [inhibitor, full curve]
C=CCN1C(=O)C(CC(=O)NCC)SC1=Nc1ccc(S(N)(=O)=O)cc1 (centres undefined) 100 µM [inhibitor, single point]
Cc1ccc(N2C(=O)C3CCCN3C2=S)cc1C (centres undefined) 28.2 µM [inhibitor, partial curve]
CCOC(=O)c1[nH]c(C)c(C(=O)c2ccc(C)cc2)c1C 50.1 µM [inhibitor, partial curve]
CCOC(=O)c1c(C)[nH]c(C)c1S(=O)(=O)N(C)CC(=O)N1CCN(c2cccc(Cl)c2)CC1 56.2 µM [inhibitor, partial curve, poor fit]
COC(=O)C1CC2(C(=O)OC)CC(C(=O)OC)(CC(C(=O)OC)C2=O)C1=O (centres undefined) 39.8 µM [inhibitor, single point]
CCOC(=O)N1CCC(NS(=O)(=O)c2cc3c(cc2Cl)NC(=O)CO3)CC1 89.1 µM [inhibitor, single point]
Cc1cccc(C)c1NC(=O)Cn1cc(S(=O)(=O)Cc2ccc(F)cc2)c2ccccc21 56.2 µM [inhibitor, partial curve]
CCOC(=O)CSc1nc2sc3c(c2c(=O)n1-c1ccccc1)CCN(C(C)C)C3 28.2 µM [inhibitor, partial curve]
Cc1cc(S(=O)(=O)N2CCCC2)ccc1OCC(=O)NCc1ccco1 89.1 µM [inhibitor, single point]
Cc1ccc(N2CCN(c3nc4ccccc4c4nnc(C)n34)CC2)c(C)c1 56.2 µM [inhibitor, partial curve]
Cc1cccc(OCC(=O)Nc2ccc(N3CCCC3)cc2)c1C 39.8 µM [inhibitor, partial curve]

Potency, inactive:
C=CCn1c(=S)[nH]c2cc(C(=O)Nc3ccc(F)cc3)ccc2c1=O
CSCCC(NC(=O)COc1ccccc1)C(=O)N(C)Cc1ccc(F)cc1 (centres undefined)
Cc1ccc2c(c1)sc1nc(-c3cc4cc(Cl)ccc4oc3=O)cn12
CCC1CCCCN1S(=O)(=O)c1ccc(NC(=O)CSc2ncccc2C(=O)O)cc1 (centres undefined)
CC1CCN(S(=O)(=O)c2ccc3[nH]cc(C(=O)NCc4ccc(F)cc4)c(=O)c3c2)CC1
O=C(CNc1cccc([N+](=O)[O-])c1)NC(=O)NC1CCCCC1
O=C(c1cccc(C(F)(F)F)c1)c1c[nH]c(C(=O)NCCCN2CCOCC2)c1
COc1ccccc1NC(=O)Nc1ccc(C(N)=O)cc1
CCOC(=O)/C=C/S(=O)(=O)c1ccc(NC(C)=O)cc1
COc1ccc(F)cc1CN1CCN(C(=O)c2ccc(S(=O)(=O)N3CCCCCC3)cc2)CC1
Cc1ccc(OCCNC(=O)C2CC(=O)N(Cc3ccccc3)C2)cc1 (centres undefined)
O=C(CNC(=O)[C@@H]1Cc2ccccc2CN1)Nc1ccc2c(c1)OCCO2
COc1ccc(C(=O)Nc2nnc(SCc3cc(=O)n4cc(Cl)ccc4n3)s2)cc1
CCOC(=O)CSc1nc(C)cc(C)n1
CC(=O)Nc1cccc(C(=O)/C=C/c2ccco2)c1
O=C(CSC(=S)N1CCOCC1)Nc1nccs1
CC1CCN(C(=O)COC(=O)CCc2c[nH]c3ccccc23)CC1
COc1cccc(/C=N/NC(=O)C(=O)N2CCCC2)c1OC

Activity change, negative = inhibition, inactive:
Cc1ccc(CNC(=O)CCc2ccc(S(=O)(=O)NC3CCCCC3)cc2)cc1 10.3% [at 11.4 µM]
